Experimental data reported in the CheMixHub viscosity set.
“And” between values parts separate entries of the source, which are not always exact repeats. Equal values may be shown once. This continues a long series; more values of the same kind are listed elsewhere.

Legend:
[1] = xn = mol fraction of the nth substance listed

CC(C)=O
101 kPa
Conditions | viscosity
293.15 K | 0.3339 mPa·s and 0.318 mPa·s
298.1 K | 0.331 mPa·s and 0.336 mPa·s and 0.342 mPa·s
298.15 K | 0.309 mPa·s and 0.3045 mPa·s and 0.3212 mPa·s
303.15 K | 0.2954 mPa·s and 0.3086 mPa·s
308.15 K | 0.2939 mPa·s and 0.2809 mPa·s and 0.2809 mPa·s
313.15 K | 0.2713 mPa·s and 0.2839 mPa·s and 0.266 mPa·s
323.15 K | 0.2504 mPa·s

CCOS(=O)(=O)[O-].CC[n+]1ccn(C)c1
100 kPa
Conditions | viscosity [mPa·s]
298.15 K | 100.6
313.15 K | 49.7

c1ccccc1
Conditions | viscosity
293.15 K, 101.33 kPa | 0.657 mPa·s and 0.6862 mPa·s and 0.6858 mPa·s
295.15 K, 101 kPa | 0.628 mPa·s
298 K, 101.33 kPa | 0.6119 mPa·s
298.15 K, 100 kPa | 0.6099 mPa·s
298.15 K, 101.3 kPa | 0.606 mPa·s and 0.61 mPa·s
299.15 K, 101.3 kPa | 0.619 mPa·s
303 K, 101.33 kPa | 0.5652 mPa·s
303.15 K, 101.3 kPa | 0.5651 mPa·s and 0.539 mPa·s
303.15 K, 101.33 kPa | 0.518 mPa·s
303.2 K, 101.33 kPa | 0.554 mPa·s
308.15 K, 101.3 kPa | 0.5284 mPa·s and 0.525 mPa·s
308.15 K, 101.33 kPa | 0.5413 mPa·s and 0.493 mPa·s and 0.528 mPa·s
313 K, 101.33 kPa | 0.4992 mPa·s
313.15 K, 101.33 kPa | 0.4863 mPa·s and 0.49 mPa·s
318.15 K, 101 kPa | 0.465 mPa·s and 0.553 mPa·s and 0.464 mPa·s
318.15 K, 101.33 kPa | 0.46 mPa·s
322.55 K, 101 kPa | 0.4691 mPa·s
323 K, 101.33 kPa | 0.435 mPa·s and 0.4447 mPa·s
323.15 K, 100 kPa | 0.4453 mPa·s
323.15 K, 101 kPa | 0.438 mPa·s and 0.415 mPa·s and 0.442 mPa·s
323.15 K, 101.33 kPa | 0.415 mPa·s and 0.4344 mPa·s

NCCCN + CC(O)CO
[1], 318.15 K, 101.3 kPa
Conditions | viscosity [mPa·s]
x2 = 0.2945 | 3.56
x2 = 0.3441 | 4.45
x2 = 0.3937 | 5.56
x2 = 0.4435 | 6.94
x2 = 0.4934 | 8.56
x2 = 0.5435 | 10.3
x2 = 0.5937 | 12.1
x2 = 0.644 | 14
x2 = 0.6945 | 15.5
x2 = 0.745 | 16.7
x2 = 0.7958 | 17.3
x2 = 0.8466 | 17.4
x2 = 0.8976 | 17
x2 = 0.9487 | 16.3

OCCCO + CS(C)=O
[1], 318.15 K, 101 kPa
Conditions | viscosity [mPa·s]
x1 = 0.3056 | 2.84
x1 = 0.356 | 3.18
x1 = 0.4064 | 3.58
x1 = 0.4566 | 4.04
x1 = 0.5066 | 4.59
x1 = 0.5565 | 5.22
x1 = 0.6063 | 5.95
x1 = 0.6556 | 6.82
x1 = 0.7055 | 7.83
x1 = 0.7549 | 9.03
x1 = 0.8042 | 10.5
x1 = 0.8533 | 12.1
x1 = 0.9024 | 14
x1 = 0.9512 | 16.2

CS(=O)(=O)O + O
viscosity [mPa·s], [1], 100 kPa
Conditions | x1 = 0.003409 | x1 = 0.004307 | x1 = 0.005194 | x1 = 0.006086 | x1 = 0.006979 | x1 = 0.007862 | x1 = 0.008752
308.15 K | – | 0.7529 | 0.762 | 0.7678 | 0.7775 | 0.786 | 0.7898
313.15 K | 0.679 | 0.6843 | 0.6926 | 0.7016 | 0.7064 | 0.7136 | 0.7212
318.15 K | 0.6205 | 0.6262 | 0.6338 | 0.6392 | 0.6467 | 0.6541 | 0.6593

NCCCN + O
viscosity [mPa·s], [1], 101 kPa
Conditions | 303.15 K | 308.15 K | 313.15 K | 318.15 K | 323.15 K
x1 = 0.05 | – | – | – | – | 0.9913
x1 = 0.0518 | 1.637 | 1.437 | 1.267 | 1.127 | 1.008
x1 = 0.0966 | – | – | – | 1.765 | 1.549
x1 = 0.1 | 2.991 | 2.534 | 2.174 | 1.887 | 1.65
x1 = 0.1458 | – | – | – | 2.589 | 2.222
x1 = 0.1498 | 4.882 | 4.012 | 3.345 | 2.827 | 2.417
x1 = 0.199 | – | – | – | 3.536 | 2.951
x1 = 0.2004 | 6.762 | 5.446 | 4.467 | 3.714 | 3.132
x1 = 0.2473 | – | – | – | 4.078 | 3.425
x1 = 0.2498 | 7.872 | 6.309 | 5.128 | 4.236 | 3.548
x1 = 0.2734 | 8.088 | 6.473 | 5.268 | 4.351 | 3.646
x1 = 0.2961 | – | – | – | 4.378 | 3.676
x1 = 0.2984 | 8.108 | 6.502 | 5.297 | 4.379 | 3.662
x1 = 0.3248 | 7.918 | 6.364 | 5.199 | 4.307 | 3.619
x1 = 0.3465 | – | – | – | 4.336 | 3.632
x1 = 0.3502 | 7.614 | 6.155 | 5.027 | 4.189 | 3.518
x1 = 0.3766 | 7.121 | 5.774 | 4.754 | 3.972 | 3.354
x1 = 0.3974 | – | – | – | 4.12 | 3.47
x1 = 0.4041 | 6.681 | 5.464 | 4.509 | 3.787 | 3.211
x1 = 0.4467 | 5.911 | 4.871 | 4.068 | 3.445 | 2.935
x1 = 0.4955 | – | – | – | 3.414 | 2.935
x1 = 0.5995 | – | – | – | 2.674 | 2.314
x1 = 0.6969 | – | – | – | 2.114 | 1.866
x1 = 0.8006 | – | – | – | 1.712 | 1.534
x1 = 0.8936 | – | – | – | 1.416 | 1.281

NCCCN + OCCCO
[1], 318.15 K, 100 kPa
Conditions | viscosity [mPa·s]
x2 = 0.2945 | 4.787
x2 = 0.3441 | 6.147
x2 = 0.3937 | 7.884
x2 = 0.4435 | 10.14
x2 = 0.4934 | 12.59
x2 = 0.5435 | 15.46
x2 = 0.5937 | 17.71
x2 = 0.644 | 21.16
x2 = 0.6945 | 23.1
x2 = 0.745 | 24.52
x2 = 0.7958 | 25.07
x2 = 0.8466 | 24.87
x2 = 0.8976 | 24.04
x2 = 0.9487 | 22.17
